#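 Briefly, cells in 96-well plates were exposed to five compound concentrations for 48 h, and endpoints were estimated by linear interpolation. GI50 = concentration required for 50% inhibition of growth. TGI: concentration producing complete growth inhibition.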
# Test system: NCI-H322M lung
# Experiment: NCI tumour cell line growth inhibition, 48 h
Compound,TGI [µM],GI50 [µM]
CC(C)C1CN1CC(O)Cn1ccnc1[N+](=O)[O-] (stereo not drawn),> 100,
O=C(Cc1ccccc1)Oc1ccc2c(-c3ccccc3)c(C(=O)Nc3ccc(Cl)cc3)c(=O)oc2c1,> 100,
CS(=O)(=O)C1S(=O)(=O)OCCOS1(=O)=O,> 100,
CCCOC(=O)N[C@H]1CCc2c(Br)c(OC)c(OC)c(OC)c2-c2ccc(SC)c(=O)cc21,> 100,0.0513
COc1ccc(-n2sc3ncc(-c4ccccc4)cc3c2=O)cc1,> 100,
Cc1cc(Br)c(N2C3=C(CC4=C2CCCC4=O)C(=O)CCC3)c(Br)c1,> 100,
Cc1c(Cl)ccc2c1NC(=O)C2(O)CC(=O)c1ccc(Cl)cc1Cl (stereo not drawn),> 50,
Oc1c(OCc2nnc(CCCCCCCCc3nnc(COc4ccc5ccccc5c4O)n3Nc3ccccc3)n2Nc2ccccc2)ccc2ccccc12,44.9,
O=C(C=P(c1ccccc1)(c1ccccc1)c1ccccc1)C12CC3CC(CC(C3)C1)C2,29.9,
COc1ccc(-c2cc3c4c(nc5ccccc5c4c2)CC(c2cc(OC)c(OC)c(OC)c2)O3)cc1 (stereo not drawn),> 100,3.02
N/C(CC/C(N)=N\O)=N\O,> 100,
Brc1c[n+](Cc2ccc3ccccc3c2)cn1Cc1ccc2ccccc2c1,7.93,2.31
COC(=O)C(=O)C(C(=O)C(=O)Nc1ccccc1C(=O)OC)c1nc2ccc(C(=O)c3ccccc3)cc2[nH]c1=O (stereo not drawn),> 100,
N=C(N)/N=C(/C=C/c1ccccc1)CC1OC(=O)c2ccccc21 (stereo not drawn),> 100,
COC(=O)OC[C@H]1O[C@@H](n2cc(C)c(=O)[nH]c2=O)CC1OC(=O)OC (stereo partly drawn),> 100,
O=C(/C=C/c1ccc(OCCCCCCCCCCOc2ccc(/C=C/C(=O)c3ccc(Cl)cc3)cc2)cc1)c1ccc(Cl)cc1,> 100,
CN(CCNC(=O)c1[nH]nc2c1ccc1ccccc12)CCNC(=O)c1[nH]nc2c1ccc1ccccc12,5.86,
O=C1CC(NC(=O)C(F)(F)F)c2c(Br)sc(N3CCC(c4ccccc4)CC3)c21 (stereo not drawn),> 100,
[N-]=N[N+]#I1OC(C(F)(F)F)(C(F)(F)F)c2ccccc21,32.1,
O=S(=O)(O)c1ccc(NN(c2c(O)ccc3ccccc23)S(=O)(=O)O)cc1,> 100,
COC(=O)c1cnc2nc(N3CCOCC3)[nH]n2c1=O,> 100,
N#CI1OC(=O)c2ccccc21,> 100,
CCOC(=O)c1cc2cc(Cc3ccc4[nH]c(C(=O)OCC)cc4c3)ccc2[nH]1,> 100,
O=c1cc2n(c(=O)[nH]1)C1OC(C(O)C1O)[C@@H]2CCO (stereo partly drawn),> 100,
CN(C(=O)C1CCCCC1)c1ccccc1I(=O)=O,> 100,> 100
CC1=C/C(=C(\c2ccc(N(C)C)cc2)c2ccc([N+](C)(C)C)cc2)C=CC1=[N+](C)C,18.9,

Compound,TGI [µM],GI50 [µM]
Cc1c(C)c(C)c(-n2c(=O)n(C)c(=O)n2C(C)(C)C)c(C)c1C,> 100,
O=c1c2cc([N+](=O)[O-])ccc2n2n1Cc1ccccc1CC2,> 100,
CCCCCCC1CCC2CCCC(C)N12 (stereo not drawn),> 100,
Nc1cc2c(cc1[N+](=O)[O-])[nH]c1c(-c3ccccc3)nccc12,> 67.8,
O=C(NCCNCCO)N/N=C/c1cccc([N+](=O)[O-])c1,> 100,
COc1ccc2nc3ccc(OC)cc3c(S(=O)Cc3ccc([N+](=O)[O-])cc3)c2c1 (stereo not drawn),33.5,
Cc1ccc(OP2(=O)Oc3ccc4ccccc4c3CN2c2ccc(Cl)cc2)cc1C (stereo not drawn),> 100,
OCC1SC(n2cnc3cncnc32)C(O)C1O (stereo not drawn),> 100,> 100
COc1ccc(CN2C(=O)CCC/C=C\[C@H]2CI)cc1,25.9,
O=C(Cn1ccnc1[N+](=O)[O-])N(CCO)CCO,> 1250,> 1250
CCOC(C)OCC#CCCBr (stereo not drawn),> 100,
c1ccc2[nH]c(-c3nc4ccccc4o3)nc2c1,> 100,
COc1cc(OC)cc(N2CCC(c3c(N)nc(N)nc3Cl)CC2)c1,> 100,
[Cu+2].[Cu+2].[O-]c1ccccc1C=Nc1ccccc1[O-].[O-]c1ccccc1C=Nc1ccccc1[O-],21.2,9.31
O=S(=O)(Nc1ccc(-c2nc(-c3cccc(OCCN4CCOCC4)c3)c(-c3ccnc(Br)c3)[nH]2)cc1)c1ccccc1,> 100,5.09
CC(C)(C)C1CC[C@H]2c3c([nH]c4ccc(Br)cc34)[C@H]3C(=O)N(c4ccccc4)C(=O)[C@H]3[C@H]2C1 (stereo partly drawn),> 100,
CCOc1ncn(-c2ccc(NC(=S)Nc3cccc(O)c3)cc2)n1,> 100,
COc1ccc(C2C3=C(NC(=O)C2C#N)c2ccc4ccccc4c2OCC3)cc1 (stereo not drawn),> 100,34.9
COC(=O)OCC1OC(N2C(=O)NC(=O)C(I)C2N=[N+]=[N-])CC1OC(=O)OC (stereo not drawn),> 100,
OCC(O)COc1ccc(Br)cc1 (stereo not drawn),> 100,
COc1ccc2c(c1)Oc1nc(N)c(C#N)c(N)c1C2Sc1ccc(SC)cc1 (stereo not drawn),3.07,1.69
COc1ccc(C2CC(c3cc4c(C)c(C(=O)c5ccccc5)oc4cc3O)=Nc3ccccc3S2)cc1OC (stereo not drawn),> 100,
Cc1ccc(S(=O)(=O)N(C)C)cc1[N+](=O)[O-],> 100,> 100
Oc1ccc(-c2cc(-c3c(O)cc(O)cc3O)on2)cc1,> 100,
O=C(NNc1nc2cc(F)ccc2n2c(CN3CCOCC3)ccc12)c1ccccc1,2.62,0.276

# Source: PubChem BioAssay (NCI)
